Experimental findings from the supplement of paper PMC9446081 are described below.

Molecules are shown by their SMILES. The whole screen tested about 39,000 compounds, of which about 220 (0.56%) showed activity. The list shows a part of the results.
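Further: static incubation at 37 °C against the wild-type strain, values averaged over two biological replicates.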

In this assay the test system is Escherichia coli K-12 BW25113. Briefly: relative growth (OD600 normalised to plate interquartile mean) (fraction); higher = less growth inhibition, active = 0.2 or less. The note with it: 50 µM; LB; incubation time: overnight (16-24 h).
As to `C[C@@H](NS(=O)(=O)c1cccc(F)c1)C(=O)O`, the relative growth was inactive: 1.03.

Take `CCO[C@H]1OC(C(=O)N2CCN(Cc3ccc4c(c3)OCO4)CC2)=C[C@@H](c2csc3ccccc23)[C@@H]1CCCOC(=O)NCCCCCC(=O)NO`: the relative growth was inactive: 0.982.

`Cc1ccc(S(=O)(=O)N[C@@H](Cc2ccccc2)C(=O)NCCn2cc(C(=O)NO)nn2)cc1`: the relative growth was inactive: 1.

Turning to `C[C@@H]1CN([C@H](C)CO)C(=O)c2cc(NC(=O)Cn3cnnn3)ccc2O[C@H]1CN(C)C(=O)Nc1ccc(F)cc1`, the relative growth is inactive: 0.981.

Regarding `COc1ccc(S(=O)(=O)N(C)C[C@@H]2Oc3ccc(NC(=O)C4CC4)cc3CC(=O)N([C@@H](C)CO)C[C@@H]2C)cc1`, the relative growth is inactive: 0.986.

As to `COc1ccc(NC(=O)Nc2ccc3c(c2)C(=O)N([C@H](C)CO)C[C@H](C)[C@H](CN(C)C(=O)NC2CCCCC2)OCCCC[C@@H](C)O3)cc1`, the relative growth was inactive: 0.955.

`COCCNC(=O)C[C@H]1CC[C@H]2[C@@H](COc3ccc(NC(=O)Nc4cccc(F)c4)cc3C(=O)N2C)O1`: the relative growth is inactive: 0.975.

For the molecule `CO[C@@H]1CN(C)C(=O)c2cc(NC(=O)Nc3ccccc3F)ccc2OC[C@@H](C)N(Cc2ccccc2F)C[C@H]1C`, the relative growth is inactive: 1.03.

As to `CO[C@H]1CN(C)C(=O)c2cc(NS(=O)(=O)c3ccccc3C)ccc2OC[C@@H](C)N(S(C)(=O)=O)C[C@@H]1C`, the relative growth is inactive: 0.999.

Take `C[C@@H]1CN([C@H](C)CO)C(=O)c2cc(N(C)C)ccc2O[C@@H](C)CCCCO[C@H]1CN(C)Cc1ccc(C(F)(F)F)cc1`: the relative growth is inactive: 0.969.

In the case of `C#CCN1C(=O)N(C(=O)c2ccccc2)[C@@H]2c3ccccc3O[C@@]1(COCc1ccc(OC)cc1)[C@@H]2CO[Si](C)(C)C(C)(C)C`, the relative growth is inactive: 1.01.

`C[C@H]1CN([C@@H](C)CO)C(=O)c2cc(C#CC3(O)CCCC3)cnc2O[C@H]1CN(C)C(=O)CN(C)C`: the relative growth is inactive: 0.988.

For the molecule `Cc1noc(C)c1S(=O)(=O)N(C)C[C@@H]1Oc2ccc(NS(=O)(=O)c3cccs3)cc2CC(=O)N([C@@H](C)CO)C[C@@H]1C`, the relative growth was inactive: 1.01.

Take `C[C@H](CO)N1C[C@H](C)[C@H](CN(C)CC2CCCCC2)OCCCC[C@H](C)Oc2ccc(NC(=O)Nc3cccc4ccccc34)cc2C1=O`: the relative growth was inactive: 0.981.

Regarding `C[C@@H]1CCCCO[C@@H](CN(C)C(=O)CCC(F)(F)F)[C@H](C)CN([C@@H](C)CO)C(=O)c2cc(NC(=O)Cc3ccccc3)ccc2O1`, the relative growth is inactive: 1.02.

With `C[C@@H]1CCCCO[C@@H](CN(C)C(=O)NC2CCCCC2)[C@H](C)CN([C@@H](C)CO)C(=O)c2cc(NS(=O)(=O)c3cccs3)ccc2O1`, the relative growth was inactive: 0.982.

For `C[C@H]1CN([C@@H](C)CO)C(=O)Cc2cc(NC(=O)Nc3ccc(C(F)(F)F)cc3)ccc2O[C@@H]1CN(C)Cc1ccc(C(=O)Nc2ccccc2N)cc1`, the relative growth is inactive: 1.01.

In the case of `Nc1ncnc2c1c(I)cn2[C@@H]1O[C@H](CO)[C@@H](O)[C@H]1O`, the relative growth is inactive: 0.974.

For `C[C@H]1CCCCO[C@H](CN(C)C(=O)Nc2ccc(C(F)(F)F)cc2)[C@@H](C)CN([C@@H](C)CO)C(=O)c2cc(NS(C)(=O)=O)ccc2O1`, the relative growth is inactive: 0.93.

`C=CCNC(=O)[C@H]1[C@@H]2C(=O)O[C@@H](c3ccccc3)[C@@H](c3ccccc3)N2[C@@H](c2ccc(O)cc2)[C@]12C(=O)Nc1ccc(C#CC3=CCCCC3)cc12`: the relative growth is inactive: 1.05.

In the case of `Cc1noc(C)c1NC(=O)Nc1cccc2c1O[C@H](CN(C)Cc1ccc(C(F)(F)F)cc1)[C@H](C)CN([C@@H](C)CO)C2=O`, the relative growth was inactive: 0.98.

As to `C[C@H](CO)N1C[C@H](C)[C@H](CN(C)Cc2ccc(-c3ccccc3)cc2)Oc2ccc(NC(=O)Cc3cn(C)c4ccccc34)cc2CC1=O`, the relative growth is inactive: 1.02.

In the case of `CC[C@H]1CN(C)N1C(=O)[C@H]1CCCO1`, the relative growth was inactive: 0.927.

In the case of `COc1ccc2c3c(n(c2c1)C)[C@@H](CO)N(CC1CCOCC1)C[C@]13CCN(CC1)C(=O)Cc1cccnc1`, the relative growth was inactive: 1.01.

`C[C@H](CO)N1C[C@H](C)[C@H](CN(C)C(=O)Nc2ccccc2)OCCCC[C@H](C)Oc2ccc(NS(=O)(=O)c3ccccc3)cc2C1=O`: the relative growth was inactive: 1.03.

Take `CC(C)NC(=O)N(C)C[C@@H]1OCCCC[C@H](C)Oc2ccc(NC(=O)C3CCCCC3)cc2C(=O)N([C@@H](C)CO)C[C@@H]1C`: the relative growth was inactive: 0.999.

As to `C[C@@H]1CN([C@H](C)CO)C(=O)Cc2cc(NC(=O)Nc3ccc(C(F)(F)F)cc3)ccc2O[C@H]1CN(C)Cc1ccc(Oc2ccccc2)cc1`, the relative growth was inactive: 0.881.

For `COc1cccc(OC)c1C(=O)O[C@H]1[C@@H]2OC(=O)[C@@H](Cc3ccc4ccccc4c3)C/C=C/C[C@H](Cc3ccc4ccccc4c3)C(=O)O[C@H]2[C@@H](OC)O[C@@H]1CO`, the relative growth was inactive: 1.02.

As for `C[C@@H]1CN([C@H](C)CO)C(=O)c2cc(NC(=O)NC3CCCCC3)ccc2O[C@@H](C)CCCCO[C@H]1CN(C)C(=O)Nc1ccccc1`, the relative growth is inactive: 1.02.

Take `COC(=O)CNC(=O)c1ccc(S(=O)(=O)N2CCOCC2)cc1`: the relative growth is inactive: 0.998.

Consider `CN(C)CCCCNC(=O)[C@H]1C[C@H]2C(=O)N[C@@H](CCCC[N+](C)(C)C)C(=O)N2[C@H]1c1cccc(OCCO)c1`, for which the relative growth was inactive: 1.

Take `C[C@@H]1CN([C@@H](C)CO)C(=O)c2cccc(NC(=O)c3ccncc3)c2O[C@@H]1CN(C)Cc1ccncc1`: the relative growth was inactive: 0.992.

`CC(C)(N)C(=O)N[C@H](COCc1ccccc1)C(=O)N1CCC2(CC1)CN(S(C)(=O)=O)c1ccccc12`: the relative growth is inactive: 1.

Consider `O=C(C[C@@H]1CC[C@@H]2[C@H](COC[C@H](O)CN2C(=O)c2ccncc2)O1)NC1CCC1`, for which the relative growth was inactive: 1.01.

Turning to `C[C@H](CO)N1C[C@H](C)[C@H](CN(C)C(=O)Nc2ccc3c(c2)OCO3)Oc2ccc(NC(=O)CCN3CCOCC3)cc2C1=O`, the relative growth was inactive: 0.977.

As for `C[C@@H]1CN([C@H](C)CO)C(=O)c2cc(NC(=O)CCN3CCOCC3)ccc2O[C@H]1CN(C)Cc1ccncc1`, the relative growth is inactive: 0.994.
